Tests used:
[1] = system: Nectin-4 internalization on MDA-MB-468 cell line; experiment: Fab-ZAP intracellular internalization assay (CTG readout) on MDA-MB-468; format: cell-based, human
Procedure: The humanized variants in Table 3 of Example 3 and in Table 6 of Example 5 were cloned, produced and purified, then tested for their ability to induce Nectin-4 internalization. Chimeric parental 5E7 antibody and isotype controls were used as negative control. This analysis was performed with the Fab-ZAP human Internalization kit assay with the Cell Titer Glo™ (CTG) assay used as readout. Experiments were performed on two cell lines expressing different levels of Nectin-4. MDA-MB-468 have a lower expression of Nectin-4 than SUM190.
Results of the internalization assays on SUM190 cell line are shown in Table 10 below that presents the internalization efficiency (normalized to the chimeric parental antibody internalization efficiency on MDA-M-468 cell line). The experiment was conducted in duplicate (two independent experiments).

human Nectin-4 = biological target: T1, human Nectin-4 (Homo sapiens, UniProt Q96NY8); experiment: Binding to human Nectin-4 by SPR; details: second set (Table 7)
T1 sequence (Q96NY8 32-510): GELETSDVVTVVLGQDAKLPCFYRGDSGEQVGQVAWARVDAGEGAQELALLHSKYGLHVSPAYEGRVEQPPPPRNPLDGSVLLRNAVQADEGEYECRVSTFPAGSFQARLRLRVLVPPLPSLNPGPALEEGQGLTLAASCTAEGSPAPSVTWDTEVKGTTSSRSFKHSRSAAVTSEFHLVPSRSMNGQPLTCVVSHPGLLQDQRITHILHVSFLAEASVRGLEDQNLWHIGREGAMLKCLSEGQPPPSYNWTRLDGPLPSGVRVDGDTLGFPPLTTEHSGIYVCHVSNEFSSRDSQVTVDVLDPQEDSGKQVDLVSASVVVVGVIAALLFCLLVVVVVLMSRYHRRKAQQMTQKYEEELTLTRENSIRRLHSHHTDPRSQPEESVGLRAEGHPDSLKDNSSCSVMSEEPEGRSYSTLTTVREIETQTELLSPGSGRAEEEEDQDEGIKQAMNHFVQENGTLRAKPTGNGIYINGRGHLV
Procedure: (§1) The antibodies in Table 3 of Example 3 were cloned as human IgG1 isotype antibodies, produced and purified, then tested for binding to human Nectin-4. Affinity of the 16 humanized variants, as well as their association and dissociation constants were assessed by SPR analysis. Table 4 summarizes all the calculated constants (Affinity constant KD (nM), association constant ka (1/Ms) and dissociation constant kd (1/s)).
as §1, with “Table 6” for “Table 3”, “Example 5” for “Example 3”, “Table 7” for “Table 4”

ka (human Nectin-4; SPR association constant): 250000 ± 10000 M⁻¹ s⁻¹
kd (human Nectin-4; SPR dissociation constant): 0.0053 ± 0 s⁻¹
Kd (human Nectin-4; SPR, human IgG1 isotype antibodies): 21.5 ± 0.4 nM
B1: H5L3: humanized 5E7 variant: VH H5 SEQ ID NO: 47, VL L3 SEQ ID NO: 65; full chains SEQ ID NO: 77, 78 (antibody)
heavy: QVQLVQSGAEVKKPGASVKVSCKASGYIFTSYWMHWVKQRPGQGLEWMGEIDPSDSYTNYNQKFKGRVTMTLDKSTSTTYMELSSLRSEDTAVYYCARGYGNYGDYWGQGTLVTVSSASTKGPSVFPLAPSSKSTSGGTAALGCLVKDYFPEPVTVSWNSGALTSGVHTFPAVLQSSGLYSLSSVVTVPSSSLGTQTYICNVNHKPSNTKVDKRV[human IgG1 Fc not printed]
light: DVVMTQSALSNPVTPGEPASISCRSSKSLLHSNGITYLYWYLQKPGQSPQLLIYQMSNLASGVPDRFSSSGSGTDFTLKISRVEAEDVGVYYCAQNLELPWTFGGGTKVEIKRTVAAPSVFIFPPSDEQLKSGTASVVCLLNNFYPREAKVQWKVDNALQSGNSQESVTEQDSKDSTYSLSSTLTLSKADYEKHKVYACEVTHQGLSSPVTKSFNRGEC
efficacy of the parental chimeric 5E7 antibody (internalization) [1]: over 75%
